PubChem BioAssay AID624296 (National Center for Advancing Translational Sciences (NCATS), 2012)
Out of some 350,000 compounds screened, about 9,900 (2.8%) were called active. This list was built around the results that the source calls inconclusive (neither active nor inactive); the mix of calls is not that of the screen. Calls come from the whole dose curve; as a rule, active = well fitted activation curve with a large enough effect; inconclusive = small, poorly fitted or top-dose-only effect; inactive = no such curve, though single readings can be large or run the other way. No potency is given beside an inconclusive call; the fits are too rough.

Experiment: A quantitative high throughput screen for small molecules that induce DNA re-replication in MCF 10a normal breast cells. For activity, positive = re-replication: % of control where 0% means no effect. Note: nearly all actives have a fitted effect of over 50% in size.
Settings: MCF 10A DNA re-replication, Hoechst nuclear intensity, 48 h; activity, positive = re-replication: at 46.1 µM (top of the series)
Potency is the fitted concentration of half-maximal effect; tags give direction and shape of the fitted curve.

Structure (SMILES) | Potency | activity, positive = re-replication
COc1ccc(/C=C/C2=CCN(C)CC2)cc1 | inconclusive [activator, single point] | 
CCN(CC)c1ccc(/C=C/[N+](=O)[O-])cc1 | inconclusive [activator, single point] | 
CCC(C)(O)C(=O)OC1C(=O)OC2CC3C(C)=CC(=O)C(O)C3(C)C3C4(O)OCC23C1C(C)C4O (centres undefined) | inconclusive [activator, full curve] | 
COc1ccc(C(=O)CN2CCOCC2)cc1F | inconclusive [activator, partial curve, poor fit] | 
CN(Cc1c[nH]c2ccccc12)C1CCCCC1 | inconclusive [activator, single point] | 
C=CCn1c(O)c(C(CC)=NCCc2c[nH]c3ccccc23)c(=O)[nH]c1=O | inconclusive [activator, single point] | 
Cn1c(=O)oc2cc(S(=O)(=O)N3CCCc4ccccc43)ccc21 | active: 2.59 µM | 
O=C(CSC1c2ccccc2-c2ccccc21)N/N=C/c1ccc(C(=O)O)cc1 |  | inactive: 1.63%
CC(C)(C)c1ccc(CN2C(=O)CN=C(c3ccccc3)c3ccccc32)cc1 | inconclusive [activator, single point] | 
CCN(CC)CCNCC(=O)Nc1ccc(Cl)cc1C(=O)c1ccccc1 |  | inactive: 6.91%
O=[N+]([O-])c1ccccc1CN1CC=C(c2ccc(F)cc2)CC1 | inconclusive [activator, partial curve, poor fit] | 
CC(=NCCCO)c1c(O)[nH]c(=O)[nH]c1=O |  | inactive: 1.82%
CC(=O)O[C@H](CC(=O)O)C[N+](C)(C)C |  | inactive: -0.282%
[N-]=[N+]=CC(=O)OC[C@H](N)C(=O)O | inconclusive [activator, full curve, poor fit] | 
CN1CN(c2ccccc2)C2(CCN(CCCSc3ccccc3NC(=O)/C=C/c3ccccc3)CC2)C1=O | inconclusive [activator, single point] | 
Cc1cc(OCC(=O)N[C@@H](Cc2ccccc2)C(=O)O)c2c3c(c(=O)oc2c1)CCC3 |  | inactive: 4.32%
CC1CN(CC(=O)c2ccccc2Cl)CC(C)O1 (centres undefined) | inconclusive [activator, single point] | 

Structure (SMILES) | Potency | activity, positive = re-replication
Fc1ccc(C(OCCN2CCCC2)c2ccc(Br)cc2)cc1 (centres undefined) | inconclusive [activator, partial curve] | 
Nc1c2c(nc3sc4c(c13)CCCC4)CCCC2 | inconclusive [activator, single point] | 
N#Cc1cc2c(nc1SCC(=O)Nc1cc(Cl)ccc1Cl)C1CCN2CC1 | active: 0.58 µM | 
CN(C)CCN=Cc1c(O)n(C2CCCCCC2)c(=O)[nH]c1=O |  | inactive: 18.3%
CCCC12CN3CCN(C1)CC(CCC)(C3)C2=O |  | inactive: -5.28%
Cc1oc(-c2cccs2)nc1CSCC(=O)N1CCC2(CC1)OCCO2 |  | inactive: -8.13%
NC(=O)c1cn(C2OC(CO)C(O)C2O)c2ncnc(N)c12 (centres undefined) | inconclusive [activator, full curve, poor fit] | inconclusive: 35.2% [activator]
CC1=C/C(=N\NC(=S)NCCc2ccccc2)CC(C)(C)C1 | inconclusive [activator, partial curve] | 
O=C(CCl)NN=C(c1ccccc1)c1ccccc1 | active: 14.6 µM | 
CC(C)(C)c1ccc(C(=O)NCc2ccco2)cc1 | inconclusive [activator, partial curve, poor fit] | 
O=C(CSC1c2ccccc2-c2ccccc21)N/N=C/c1ccccc1 | inconclusive [activator, single point] | 
O=C1CN=C(c2ccc(Br)cc2)c2c(sc3c2CCCC3)N1CCN1CCCCC1 |  | inactive: 13.5%
Cc1oc(-c2ccccc2)nc1CN1C(=O)CN=C(c2ccccc2)c2ccccc21 |  | inactive: 9.39%
C=CCn1c(O)c(C(C)=Nc2ccc(N(C)C)cc2)c(=O)[nH]c1=O | inconclusive [activator, partial curve, poor fit] | 
O=C(c1ccccc1)C(CN1CCCC1)c1ccccc1 (centres undefined) | active: 3.26 µM | 
CN(C)CCOc1ccc(/C(=C(/CCCl)c2ccccc2)c2ccccc2)cc1 | active: 4.61 µM | 
